Among all 55,000 compounds or so, about 530 (0.96%) were called active. Inconclusive means that the source gave no clear call. Such entries were picked first, then a sample of the others. Calls follow the shape of the dose curve; as a rule, active = well fitted cell-killing curve with a large enough effect; inconclusive = small, poorly fitted or top-dose-only effect; inactive = no such curve, though single readings can be large or run the other way. A potency beside an inconclusive call is a rough fit, not a confirmed value.
Assay: qHTS Screen for Compounds that Selectively Target Cancer Cells with p53 Mutations: Cytotoxicity of p53 Null Cells at the Nonpermissive Temperature; also: nearly all actives have a fitted effect of over 50% in size;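 as to activity, negative = cell killing: 0% = DMSO only and -100% = full killing by 100 µM tamoxifen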
Details: H1299 p53-null (neo) cells, 39C, ATPlite viability, 24 h; activity, negative = cell killing: at 46.1 µM (top of the series)
How it was run: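 H1299 lung cancer cells, p53-null (H1299-neo) or expressing p53 A138V (H1299-p53A138V), were plated overnight at 37C, then exposed to compounds at up to 46 uM for 24 hr at 39C. Viability was read by ATP-based luminescence.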
Potency is read from the fitted curve at half-maximal effect; tags tell the direction and shape of the fitted curve.

| SMILES | Potency | activity, negative = cell killing |
| --- | --- | --- |
| CCOc1ccc(OCC)c(NC(=O)c2csc3c2CCCC3)c1 | inconclusive: 35.5 µM [cytotoxic, single point] |  |
| COc1cc(Cl)c(NC(=O)CN(C)S(=O)(=O)c2ccc3c(c2)CCCC(=O)N3)c(OC)c1 | inconclusive: 0.631 µM [cytotoxic, full curve, poor fit] |  |
| CCCCCn1c(-c2cccc(C)c2)nc2ccccc21 | inconclusive: 3.98 µM [cytotoxic, full curve, poor fit] |  |
| CCS(=O)(=O)c1cccc(C(=O)N2CCN(c3nc4c(C)ccc(Cl)c4s3)CC2)c1 | inconclusive: 1.26 µM [cytotoxic, partial curve] |  |
| COc1cc(OC)c(NC(=O)NCc2cccn2Cc2ccccc2)cc1Cl | inactive |  |
| CC1CCCN(S(=O)(=O)c2cc(C(=O)NCc3ccccc3Cl)n(C)c2)C1 (stereo not given) | inconclusive: 0.199 µM [cytotoxic, full curve, poor fit] |  |
| COc1ccc(-c2cn3c(n2)sc2cc(C(=O)Nc4ccc(F)cc4Cl)ccc23)cc1 | inconclusive: 12.6 µM [cytotoxic, partial curve] |  |
| Cc1ccc2nc(-c3ccncc3)c(Nc3ccc(C(C)C)cc3)n2c1 | inconclusive: 12.6 µM [cytotoxic, single point] |  |
| CC(=O)Nc1ccc(S(=O)(=O)NCc2cccn2Cc2cccc(C)c2)cc1 | inactive |  |
| COc1ccc(N2CC(NC(=O)c3ccco3)CC2=O)cc1OC (stereo not given) | inactive |  |
| COc1ccc(OCC2c3cc(OC)c(OC)cc3CCN2C(=O)COc2ccc(Cl)cc2Cl)cc1 (stereo not given) | inactive |  |
| CCc1ccc(-n2nc(CO)c(C(=O)NCC(c3ccccc3)c3ccccc3)n2)cc1 | inactive |  |
| COc1ccc(C(=O)COC(=O)C(CC(C)C)N2C(=O)c3ccccc3C2=O)cc1 (stereo not given) | inconclusive: 25.1 µM [cytotoxic, single point] |  |
| CCc1ccccc1Nc1ncnc2c1cnn2-c1ccc(Cl)cc1 | inactive |  |
| Cc1cc(C)c2c(=O)cc(CSc3nnc(-c4ccccc4)n3C)[nH]c2c1 | inconclusive: 12.6 µM [cytotoxic, single point] |  |
| CCOC(=O)c1ccccc1NC(=O)CSc1cc(C)[nH]c(=O)n1 | inactive |  |
| Cc1ccc(-n2nc3c(N4CCC(C(=O)NCCc5ccccc5C)CC4)nnc(C)c3c2C)cc1 | inactive |  |
| Cc1ccc(Nc2ncnc3c2nc2n3CCCC2)c(Br)c1 | active: 11.2 µM |  |
| Cc1cc(Cl)ccc1OCC(=O)N(Cc1ccc(N(C)C)cc1)CC1CCCO1 (stereo not given) | inconclusive: 15.8 µM [cytotoxic, single point] |  |
| Cc1nn(-c2ccccc2)c2nc(C3CC3)cc(C(=O)NCc3ccccc3Cl)c12 | inconclusive: 0.158 µM [cytotoxic, full curve] |  |
| CNc1oc(-c2ccc(COc3ccc(C)cc3)o2)nc1C#N | inconclusive: 0.005 µM [cytotoxic, full curve, poor fit] |  |
| CCOc1ccccc1NC(=O)c1cnc(N2CCOCC2)c2ccccc12 | inactive |  |

| SMILES | Potency | activity, negative = cell killing |
| --- | --- | --- |
| CCOc1ccccc1NC(=O)c1ccc2c(Cl)c3c(nc2c1)CCCC3 | inconclusive: 0.0501 µM [cytotoxic, full curve, poor fit] |  |
| COC(=O)/C(N=Nc1c(C)n(C)n(-c2ccccc2)c1=O)=C(\C)O |  | inactive: -18.2% [at 1.84 µM] |
| O=C(Nc1ccc(Cl)cc1)N1CCC(c2ccccc2)C1 (stereo not given) | inconclusive: 7.94 µM [cytotoxic, partial curve] |  |
| O=C1C(c2ccnc3ccccc23)=C(O)c2ccccc21 | inconclusive: 3.98 µM [cytotoxic, partial curve] |  |
| CC1=Nc2cc(C(=O)NCCc3ccc(Cl)cc3)ccc2Sc2c(C)ccc(C)c21 | inconclusive: 3.16 µM [cytotoxic, partial curve] |  |
| CC1=C(C(=O)OC2CCCCCC2)C(c2cccc(Cl)c2)CC(=O)N1 (stereo not given) | inconclusive: 31.6 µM [cytotoxic, single point] |  |
| CCOc1ccc(-n2nc3ccc(NC(=O)c4ccc(-c5cccc(Cl)c5)o4)cc3n2)cc1 | inconclusive: 15.8 µM [cytotoxic, single point] |  |
| CC1CCN(C(=O)c2cccc(NC(=O)c3nsc4ccccc34)c2)CC1 | inconclusive: 35.5 µM [cytotoxic, partial curve] |  |
| COCCNC(=O)c1ccc2c(c1)N=C(C)c1cc(C)ccc1S2 | inconclusive: 0.631 µM [cytotoxic, full curve, poor fit] |  |
| COc1ccc2c(CNCc3cccs3)c(C(=O)O)n(Cc3ccccc3F)c2c1 | inconclusive: 31.6 µM [cytotoxic, single point] |  |
| CCN(CC)CCCNC(=O)c1ccc2c(Cl)c3c(nc2c1)CCCC3 | inconclusive: 12.6 µM [cytotoxic, partial curve] |  |
| Cc1ccc(OCCCSc2nc(-c3ccc(C(C)(C)C)cc3)nc3cc(=O)[nH]n23)cc1C | inconclusive: 31.6 µM [cytotoxic, single point] |  |
| Cc1ccc(C)c(NS(=O)(=O)c2cc3c4c(c2)C(C)C(=O)N4CCC3)c1 (stereo not given) | inconclusive: 4.47 µM [cytotoxic, single point] |  |
| Cc1ccc(S(=O)(=O)NCCc2csc(-c3cccc(F)c3)n2)cc1 | inconclusive: 25.1 µM [cytotoxic, single point] |  |
| COc1ccc(CCNC(=O)C2COc3ccccc3C2)cc1OC (stereo not given) | inconclusive: 35.5 µM [cytotoxic, single point] |  |
| COc1ccc(C2Oc3nc(SC)nnc3-c3ccccc3N2C(C)=O)cc1 (stereo not given) | inconclusive: 0.01 µM [cytotoxic, full curve, poor fit] |  |
| CCOc1ccc(-c2oc3cc(Cl)ccc3c(=O)c2O)cc1OC | active: 15.8 µM |  |
| CC(=O)c1ccc(NC(=O)CCc2c(C)nn(-c3ccc(N4CCCCC4)nn3)c2C)cc1 | inconclusive: 12.6 µM [cytotoxic, single point] |  |
| O=C(O)c1ccc(NC(=O)c2cc3ccccc3o2)cc1 | inconclusive: 7.94 µM [cytotoxic, partial curve] |  |
| COc1ccc(C(=O)NCC(c2cccnc2)N2CCc3ccccc32)cc1OC (stereo not given) | inconclusive: 0.1 µM [cytotoxic, full curve, poor fit] |  |
| Cc1oc2c(c(C)cc3oc(=O)c(CC(=O)NCc4ccccc4)c(C)c32)c1C | inactive |  |
| COc1ccc(-c2nnc(SCC(=O)N(C)Cc3ccccc3)o2)cc1OC | inconclusive: 0.794 µM [cytotoxic, full curve, poor fit] |  |

| SMILES | Potency | activity, negative = cell killing |
| --- | --- | --- |
| CCCn1c(NCc2ccc(N(CC)CC)cc2)nc2ccccc21 | inconclusive: 35.5 µM [cytotoxic, single point] |  |
| CC(=O)c1cccc(NS(=O)(=O)c2ccc3c(c2)NC(=O)CC(=O)N3)c1 | inactive |  |
| CC(Oc1ccccc1Cl)C(=O)N1CCN(CCc2ccccn2)CC1 (stereo not given) | inconclusive: 0.0282 µM [cytotoxic, full curve, poor fit] |  |
| CCc1cccc(NC(=O)Cn2nc(-c3cc(C)ccc3C)ccc2=O)c1 | inconclusive: 20 µM [cytotoxic, partial curve, poor fit] |  |
| COc1cccc(CNCCSc2nnnn2C)c1OCc1ccccc1F | inactive |  |
| CCCCOC(=O)c1cccc(NC(=O)c2cc3ccccc3o2)c1 | active: 12.6 µM |  |
| O=C(CN1C(=O)COc2ccc(S(=O)(=O)NC3CCCC3)cc21)Nc1ccc(Cl)cc1 | inactive |  |
| COc1cc(NC(=O)CSc2nc(-c3ccco3)cc(C(F)(F)F)n2)cc(OC)c1OC | inconclusive: 12.6 µM [cytotoxic, single point] |  |
| O=C(CSc1nc(-c2cccc(F)c2)[nH]c1-c1ccccc1)Nc1ccc2c(c1)OCCO2 | inconclusive: 11.2 µM [cytotoxic, partial curve] |  |
| Cc1c(Cl)cccc1NC(=O)Cn1cc(C(=O)c2cccs2)c2ccccc21 | inconclusive: 3.55 µM [cytotoxic, partial curve, poor fit] |  |
| CCCOc1cccc(C2c3c(oc4ccccc4c3=O)C(=O)N2c2nncs2)c1 (stereo not given) | inconclusive: 20 µM [cytotoxic, partial curve] |  |
| Cc1ccc(-c2nc(CS(=O)CC(=O)N3CCN(c4cccc(Cl)c4)CC3)c(C)o2)cc1 (stereo not given) | inconclusive: 31.6 µM [cytotoxic, single point] |  |
| O=C(Nc1cccc(O)c1)c1noc2c1CCc1ccccc1-2 | active: 3.98 µM |  |
| CCOc1ccc(NC(=O)Cn2c(=O)c(CNc3ccc(CC)cc3)cc3cc4c(cc32)OCO4)cc1 | inconclusive: 0.0251 µM [cytotoxic, full curve, poor fit] |  |
| CCN(C(=O)Cn1cnc2onc(-c3ccc(F)cc3)c2c1=O)c1ccc(OC)cc1 | inactive |  |
| Cc1cccc(-n2c(C)nc3cc(C(=O)NCCC4=CCCCC4)ccc32)c1 | inconclusive: 35.5 µM [cytotoxic, partial curve, poor fit] |  |
| CCCOc1ccc(C2CC(=O)Nc3c2c(C)nn3-c2nncc(-c3cccc(OC)c3)n2)cc1OC (stereo not given) | inconclusive: 2.82 µM [cytotoxic, full curve] |  |
| CC(=O)Nc1ccc(S(=O)(=O)Nc2cc(-c3cn4ccccc4n3)ccc2C)cc1 | inconclusive: 2.51 µM [cytotoxic, single point] |  |
| Cc1cccc(C(=O)Nc2c(C(=O)NCc3ccc(Cl)cc3)sc3nc(C)cc(C)c23)c1 | inconclusive: 31.6 µM [cytotoxic, single point] |  |
| COc1ccc(NC(=O)c2c(C)oc3ccc(O)c(CN4CCCCCC4)c23)cc1Cl | inconclusive: 31.6 µM [cytotoxic, single point] |  |
| CCOC(=O)c1c(C)[nH]c(C)c1S(=O)(=O)N(C)CC(=O)Nc1ccc(C)c(N(C)C)c1 | inconclusive: 0.0316 µM [cytotoxic, full curve] |  |

From PubChem BioAssay AID904 (National Center for Advancing Translational Sciences (NCATS), 2007)
